Source: article PMC12040169 (PLOS Biology, 2025)
Some of the results follow.

system: T1, C. trachomatis L2/434/Bu expressing GFP (CTL2-GFP); set-up: species or system HeLa; C. trachomatis total inclusion area by high-content imaging, normalised to DMSO; settings: total inclusion area; 28.5 h, 10 µM; inhibitor
T1 construct: L2/434/Bu GFP intracellular growth in HeLa cells
Summary of the method: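 Following bulk GFP and resorufin fluorescence reads, infected cells were fixed, Hoechst-stained and imaged on a high-content platform. Inclusion total area and number per well served as growth proxies; nuclei counts indicated host viability. MICs were derived as for the fluorescence assay.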

First: O=C(/C=C/c1ccco1)Nc1sc2c(c1C(=O)O)CCC2 [CBK263181]
Second: CC1CCN(CC(=O)Nc2sc3c(c2C(=O)NCc2ccccc2)CCCC3)CC1 [CBK268387]
The “% of control remaining” value of the first is higher: 103.766 for the first, 94.9268 for the second.

Compared with `O=C(CCn1c(-c2cccnc2)cc2cccnc21)NC1CCCCC1` [CBK282647], `O=C(Cn1c(-c2ccc(F)cc2)cc2cccnc21)NC1CC1` [CBK284861] is lower in “% of control remaining” value: 113.079 for the first, 99.59 for the second.

Compared with `CC(C)c1cc(C(=O)N(C)Cc2cccc3ncccc23)n(C)n1` [CBK282567], `Cc1c(NC(=S)NC(=O)C(C)C)cccc1-c1nc2ncccc2o1` [CBK269712] is lower in “% of control remaining” value: 98.9037 for the first, 85.1065 for the second.

Compared with `CC(C)CNc1n[nH]c(=S)s1` [CBK016865], `Cc1ccccc1Nc1n[nH]c(=S)s1` [CBK015808] is lower in “% of control remaining” value: 82.1661 for the first, 39.7487 for the second.

Going from `Cc1c(S(=O)(=O)N2CCN(C3CCN(C)CC3)CC2)sc2ccc(C(C)C)cc12` [CBK170352] to `Cc1nc(C)n(C2CN(S(=O)(=O)c3ccc4scnc4c3)C2)n1` [CBK305889], the “% of control remaining” value rises from 49.4785 to 81.1824.

Going from `COc1ccc(S(=O)(=O)N2CCC3(CC2)CC(=O)c2ccc(C)cc2O3)cc1OC` [CBK166515] to `COc1ccc(/C=C/C(=O)O)cc1S(=O)(=O)N1CCCC1` [CBK058388], the “% of control remaining” value rises from 63.6791 to 121.223.

Going from `CC(=O)NCc1cccc(-c2cc(C(=O)Nc3ccc4c(c3)OCCO4)cnc2-c2cccnc2)c1` [CBK160658] to `CC(=O)Nc1ccc2nc(NC(=O)c3ccc4c(c3)OCCO4)sc2c1` [CBK287571], the “% of control remaining” value falls from 101.298 to 54.3001.

Compared with `CCc1cc2c(NC(CCSC)C(=O)O)nc(C)nc2s1` (centres unmarked) [CBK266709], `Cc1cccc(C)c1OCC(=O)NC(C)C(=O)O` (centres unmarked) [CBK287185] is higher in “% of control remaining” value: 108.316 for the first, 110.083 for the second.

First: CC(Cc1cccs1)NC(=O)CSCc1ccco1 (centres unmarked) [CBK283238]
Second: CCC(Oc1ccccc1)C(=O)Nc1cc(C)on1 (centres unmarked) [CBK288152]
The “% of control remaining” value of the first is lower: 102.989 for the first, 113.133 for the second.

First: c1ccc(C(=NCCN=C(c2ccccc2)c2ccccc2)c2ccccc2)cc1 [CBK262065]
Second: NC(=O)c1ccc(C(=O)OCc2ccc(-c3ccccc3)cc2)cc1 [CBK297736]
The “% of control remaining” value of the first is higher: 93.7781 for the first, 84.3405 for the second.

Going from `Cc1ccc(NC(=O)N2CCCC(CO)C2)cc1` (centres unmarked) [CBK156065] to `Cc1ccc(-n2nnc(C(=O)N3CCCCC3C(=O)O)c2C)cc1` (centres unmarked) [CBK304109], the “% of control remaining” value falls from 78.7459 to 33.2148.

First: COc1ccc(Cl)cc1N1CCN(CCCn2c(=O)[nH]c3ccccc32)CC1 [CBK138338]
Second: COc1ccc(CCCC(=O)Nc2ccc(N3CCNCC3)c3ccccc23)cc1OC [CBK028406T]
The “% of control remaining” value of the first is lower: 89.6063 for the first, 97.0936 for the second.

Compared with `Nc1ncc(CN(Cc2ccco2)CC(O)Cn2c3ccccc3c3ccccc32)cn1` (centres unmarked) [CBK286462], `O=C(CSc1nc2[nH]ncc2c(=O)n1-c1ccccc1)Nc1nsc(-c2ccccc2)n1` [CBK266486] is lower in “% of control remaining” value: 100.448 for the first, 97.4121 for the second.

First: O=C(C1CCCN(c2ccc3nncn3n2)C1)N1CCOCC1 (centres unmarked) [CBK287901]
Second: O=C(C1CCC1)N1CCC(c2onc3c2CCCCC3)CC1 [CBK284496]
The “% of control remaining” value of the first is higher: 126.801 for the first, 48.5582 for the second.

First: O=C(O)c1sc2ncccc2c1NS(=O)(=O)c1ccc(C(F)(F)F)cc1[N+](=O)[O-] [CBK050647]
Second: COC(=O)c1sccc1NC(=O)Cc1ccccc1[N+](=O)[O-] [CBK268146]
The “% of control remaining” value of the first is lower: 84.7376 for the first, 95.29 for the second.

Going from `O=c1c2snc(-c3ccc(F)cc3)c2ncn1C1CC1` [CBK282859] to `O=C(Nc1ccc(F)cc1)N1C2CCC1CC(O)(c1cccnc1)C2` (centres unmarked) [CBK281946], the “% of control remaining” value rises from 36.5117 to 81.8491.

Compared with `Cc1cc(O)ccc1C(CC(=O)O)c1ccccc1` (centres unmarked) [CBK013350], `CC(=O)c1ccccc1NC(C#N)c1ccccc1` (centres unmarked) [CBK057758] is lower in “% of control remaining” value: 98.7304 for the first, 82.3084 for the second.

Compared with `CN(C)CCN(C)c1ccc(-c2ccc(F)c(Cl)c2)cn1` [CBK036979], `CCCN(CCC)C(=O)Cn1cnc2ccc(Cl)cc2c1=O` [CBK304651] is lower in “% of control remaining” value: 105.881 for the first, 44.7988 for the second.

First: CC(=O)Nc1cc(S(=O)(=O)N2CCOCC2)c(Br)cc1C [CBK034334]
Second: Cc1cc(NC(=O)CN(C)CC(=O)Nc2ccc(Br)cc2C)no1 [CBK260700]
The “% of control remaining” value of the first is lower: 33.8124 for the first, 49.9271 for the second.

Compared with `O=C(CCn1c(=O)oc2ccccc21)N1CC=C(c2ccc(F)cc2)CC1` [CBK295602], `COc1ccccc1CC(=O)N1CCC(Cc2ccc(-c3ccccc3)cc2)(C(N)=O)CC1` [CBK285777] is higher in “% of control remaining” value: 109.959 for the first, 111.407 for the second.

First: CN(C)CCCNC(=O)c1ccnc(/C=N/O)c1 [CBK288434]
Second: Cc1n[nH]c(C)c1CCC(=O)N/N=C/c1ccncc1 [CBK262888]
The “% of control remaining” value of the first is higher: 120.864 for the first, 106.509 for the second.

First: CCn1c2ccccc2c2cc(C#N)c(=O)[nH]c21 [CBK013595]
Second: CCN1C(=O)C2(CC(=O)N(Cc3ccccc3)C2=O)c2cc(Cl)ccc21 (centres unmarked) [CBK075233]
The “% of control remaining” value of the first is lower: 99.0375 for the first, 113.354 for the second.

Compared with `OCc1ccc(-n2cc(-c3ccc(F)cc3F)nn2)cc1` [CBK112982], `CCSc1nnc(Cc2cc(=O)[nH]c(=O)[nH]2)n1-c1ccc(F)cc1` [CBK287500] is lower in “% of control remaining” value: 102.766 for the first, 95.1486 for the second.

Going from `O=C(NCCc1nc2cccnc2n1-c1ccccc1)c1ccncc1` [CBK288599] to `O=C(Nc1nnc(C2=COCCO2)o1)c1ccc(-c2ccccc2)cc1` [CBK287407], the “% of control remaining” value falls from 108.869 to 100.919.

Compared with `COc1cc(C)c(C)cc1S(=O)(=O)n1ccnc1C` [CBK287579], `COc1cc2c(=O)n(C)c3nncn3c2cc1OC` [CBK288182] is higher in “% of control remaining” value: 100.873 for the first, 110.574 for the second.

Going from `COc1ccc(C(C)C)cc1-c1ccc(NS(C)(=O)=O)c2ccccc12` [CBK083747] to `COc1ccc(Cl)cc1NC(=O)Cn1nc(-c2ccccc2)ccc1=O` [CBK270124], the “% of control remaining” value rises from 96.2896 to 104.178.

Going from `CCc1nnc(NS(=O)(=O)c2ccc(NCc3ccccc3O)cc2)s1` [CBK085149] to `O=C(NCCc1cccnc1)Nc1ccc(CN2CCCC2=O)cc1` [CBK306461], the “% of control remaining” value falls from 65.8689 to 57.6549.

First: CN1CCc2c(sc3nc(SCC(=O)c4ccccc4)n(-c4ccccc4)c(=O)c23)C1 [CBK262586]
Second: O=C(CSc1nc2ccccc2o1)N1c2ccccc2Sc2ccc(C(F)(F)F)cc21 [CBK018044]
The “% of control remaining” value of the first is higher: 82.996 for the first, 73.2284 for the second.

First: Cc1noc(C2(O)CCN(Cc3sccc3Cl)C2)n1 (centres unmarked) [CBK304863]
Second: CCc1nc(COC(=O)C2CCN(C(=O)c3ccc(F)cc3)CC2)cs1 [CBK305725]
The “% of control remaining” value of the first is lower: 43.181 for the first, 61.4333 for the second.

First: CN1CCCN(Cc2cccc3ccccc23)CC1 [CBK261531]
Second: Nc1ncc(-c2ccccc2CO)nc1N1CCN(CCO)CC1 [CBK063404]
The “% of control remaining” value of the first is lower: 96.8228 for the first, 126.166 for the second.

First: CN(C)CCN1CCN(c2nc(Br)cn3ccnc23)CC1 [CBK037501]
Second: Cc1nc(C2CCCN2C(=O)CC2CCCC2)nc2c1CCCN2Cc1ccccn1 (centres unmarked) [CBK286252]
The “% of control remaining” value of the first is higher: 112.562 for the first, 109.564 for the second.

Going from `O=c1nc(NN=C2CCCCC2)cn[nH]1` [CBK018838] to `Cc1nn(C2CCCO2)c(=O)nc1N` (centres unmarked) [CBK021028], the “% of control remaining” value falls from 91.4051 to 72.1644.

Compared with `Cc1ccc(NC(=S)NCCNc2ccccn2)cc1Cl` [CBK297544], `FC(F)(F)c1ccccc1NC(=S)Nc1ncn(Cc2ccc(Cl)c(Cl)c2)n1` [CBK267130] is higher in “% of control remaining” value: 110.035 for the first, 130.281 for the second.

Going from `O=C(NCc1ccsc1)NCC1CCN(c2ccncc2)CC1` [CBK306394] to `COC1CCN(C(=O)OCCc2cccnc2)CC1` [CBK200161], the “% of control remaining” value rises from 76.3905 to 87.9845.

First: CC(C)C[C@H](NC(=O)NCCN1CCOCC1)C(=O)O [CBK286619]
Second: O=C(NC(=O)C1CCN(CCc2ccc3c(c2)CCO3)CC1)Nc1ccccc1Cl [CBK035147]
The “% of control remaining” value of the first is lower: 60.2043 for the first, 104.075 for the second.

First: COc1ccc(Sc2nccnc2NC(C)C)cc1OC [CBK115249]
Second: CCN(CC)C(=O)C1CCCN(C(=O)NCCc2ccc(OC)c(OC)c2)C1 (centres unmarked) [CBK156134]
The “% of control remaining” value of the first is lower: 91.7431 for the first, 100.065 for the second.

Compared with `COc1ccc(-c2oc3ncn4nc(COc5ccccc5C)nc4c3c2-c2ccc(OC)cc2)cc1` [CBK265283], `COc1cc(CNc2ccc(N3CCOCC3)cc2)ccc1OCc1ccc(Cl)cc1Cl` [CBK074516] is lower in “% of control remaining” value: 106.498 for the first, 71.1047 for the second.

First: Cn1cncc1C(=O)NCc1ccccc1 [CBK200199]
Second: CC(=O)c1cc(C(=O)NCc2ccc(C)cc2)n(C)c1 [CBK296750]
The “% of control remaining” value of the first is lower: 42.1981 for the first, 74.2716 for the second.

Compared with `O=C(CC1CCCC1)N1CCC(c2nnc3n2CCCCC3)CC1` [CBK284630], `CC(C)c1nc(NCCc2nnc3n2CCC3)nc(N(C)C)n1` [CBK306409] is lower in “% of control remaining” value: 103.128 for the first, 77.0098 for the second.

Going from `COC(=O)c1c(C(C)(C)C)c(O)c2ccoc2c1OC` [CBK007577] to `CCc1cn(CC(C(=O)OC)N(C)C)c(=O)[nH]c1=O` (centres unmarked) [CBK289706], the “% of control remaining” value rises from 55.0771 to 95.9913.

Compared with `Cc1cccc(N2NC(=O)/C(=C/c3cccn3-c3ccc(S(N)(=O)=O)cc3)C2=O)c1` [CBK265660], `CCOc1ccc(S(=O)(=O)N2CCCC(C(=O)NCCO)C2)cc1` (centres unmarked) [CBK269968] is lower in “% of control remaining” value: 98.2425 for the first, 78.197 for the second.

In the case of `CC(Oc1ccc(Cl)cc1Cl)C(=O)NC1CC(C)(C)NC(C)(C)C1` (centres unmarked) [CBK263951C], the “% of control remaining” value is reported as 96.8739.
